Here are results for 22 molecules from PMC12136788.

Some of the results follow.

T1: UNK ZnF1-3 (human, UniProt Q9C0B0 31-174)
T1 sequence: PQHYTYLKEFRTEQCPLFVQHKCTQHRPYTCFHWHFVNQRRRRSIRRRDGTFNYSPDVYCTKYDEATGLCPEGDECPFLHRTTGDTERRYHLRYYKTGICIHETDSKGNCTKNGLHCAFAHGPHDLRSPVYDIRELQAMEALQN

B1: chrX:20249591:20249592:+_ENSMUSG00000001924_ENSMUST00000001989|mus_mus|FALSE|FALSE (ssRNA)
RNA: GGGAGUUCUACAGUCCGACGAUCCACCAGGAAGUACUUUUGCUUGCUCAGCUUCUCCUGAAAGUCUGACCCAAAUACAGCUACCUGCCCAUCGUAACGGUUCUGACGUGGGAGGCACUUCUCCUCUGUCAGAGCCUCUUUGUCCAACAGAGGAUUGAGCAUCA
B2: chr7:149068622:149068623:-_ENSMUSG00000025139_ENSMUST00000001950|mus_hu|mus_mus_mus_hu_False|1_1 (ssRNA)
RNA: GGGAGUUCUACAGUCCGACGAUCGUGAGGCCUCUGAGUGUGGCUUGUGGUCUGUCCUGGGUUAGAGUUGUUAAUAUCACGGAACAUACCAUCUAGAACGUUCCAGUCCCGCCUGACACCUUCAUUCCCAAUGGAGAAUCUGCUCAACAGAGGAUUGAGCAUCA
B3: chr11:54532201:54532202:-_ENSMUSG00000052298_ENSMUST00000064104|mus_hu|FALSE|FALSE (ssRNA)
RNA: GGGAGUUCUACAGUCCGACGAUCUAGGAUUUAAACAAACAUUUUAAUGAGAACACAAACCACUGACUCUGGCUUAACACCACACUCUAACAGAAAAGAAGAAACCUUUACAGAAAUAUUUGAAAUAUACAAAAUUCGUGCAAGCAACAGAGGAUUGAGCAUCA
B4: chr14:89343726:89343727:+_ENSG00000165533_ENST00000346301|hu_mus|FALSE|FALSE (ssRNA)
RNA: GGGAGUUCUACAGUCCGACGAUCGCACUCAGUGCGUUUUCUUCCCUGUGCGCUGGCCCUCCGUGAAGGCUUAUGUGGCCCAAGCACUGAUCAGAGCAUAGCAAAGUGCUGCUUCAGCUGCUUAAUUAAGUGCUGUGUGUCCACCAACAGAGGAUUGAGCAUCA
B5: 68531005_68534383_798_CDS_ENSG00000033178_ENST00000322244|human|control|control (ssRNA)
RNA: GGGAGUUCUACAGUCCGACGAUCUAUCACCGUUAUUUGUUGUAUAGAUCCAUUUAAACCUGUCAUUCCAUUAAUUUCUCGAAAUGUUAGGAAUUGUCCUGUCUCCAGUUUGUGAGGAUGAUUUUCAAGGCAAGUAACAAUGCCCAACAGAGGAUUGAGCAUCA
B6: chr22:42033747:42033748:+_ENSG00000196419_ENST00000405878|hu_hu|motif|central (ssRNA)
RNA: GGGAGUUCUACAGUCCGACGAUCCAGGUCUUCUAGCUUGCUGGAUUCCUCAAAGUGAACCCUGAGGUCCUCAUCCUCUGCGGUGCUGAUGAUAUCUCUGUAGAACAAGGAUAUGUCAAAGCCCCCAGGUUUCUUCAGGUGCAUCAACAGAGGAUUGAGCAUCA
B7: chr4:76721835:76721836:+_ENSG00000138768_ENST00000264904|hu_mus|hu_hu_hu_mus_True|78_108 (ssRNA)
RNA: GGGAGUUCUACAGUCCGACGAUCGUUGGCUGGGGUUUUCUGAGACGCUCUGGAAUAAACUCAUGUUUUGCUAAUAAAUCCUAGUUUCUCUAUGAAAUUCUCUUUGCCAAUCCUCUUCUCUAUUAGUUGCUUUAGUUUCUCUUUCAACAGAGGAUUGAGCAUCA
B8: chr8:40069188:40069189:+_ENSMUSG00000039530_ENSMUST00000167992|mus_mus|motif|central (ssRNA)
RNA: GGGAGUUCUACAGUCCGACGAUCCUUCUGUCCGCCCCCGAGCUGGAUGCAGAGCAGCAGCAGCAAGAGGAGGAAGGGAAAGCGGCCAGUAGGCAGGUAGCGCAACCGGCGGCCCGCCUGUCUCCGGCGUGAAGGAGCGGCCCUCAACAGAGGAUUGAGCAUCA
B9: chr3:179287964:179287965:+_ENSG00000136518_ENST00000429709|hu_hu|hu_hu_hu_mus_True|1_18 (ssRNA)
RNA: GGGAGUUCUACAGUCCGACGAUCCUUGAGUGGUGAGAUGGCCUCCAUGUUCUCCCUGGGCACGCGGAGGGCAUUGGUGUCUAUGUAGUAGGUGGGCCCGCCCUGCUUGCCUUUGUCGCCAUCUAUUUCCAUCAUUGUGCUUCCCAACAGAGGAUUGAGCAUCA
B10: chr1:94953452:94953453:+_ENSG00000117528_ENST00000370214|hu_hu|motif|central (ssRNA)
RNA: GGGAGUUCUACAGUCCGACGAUCUUCUGUAAUCCGAGCAGUAAAACCGGCCAAUCUAGUCAUUUCACGCCCAGCCAAAACGGUUCGACCCAGAGCUUGAGACAUUCGCAAAAGCAUUCUUCCACUUUGGUAGUAAUCCUCUAGCAACAGAGGAUUGAGCAUCA
B11: chr10:20037848:20037849:+_ENSMUSG00000037608_ENSMUST00000043881|mus_mus|FALSE|FALSE (ssRNA)
RNA: GGGAGUUCUACAGUCCGACGAUCUCAGUGAUGUCUUUGAGACACUACCAAGAUUCUUCUUGUAGAAAAUGUUAUGGGAAACUAAACUCUAAAUUCAAAUACCUGACACGCCGAAGCACGAUGUGCGUGCAGGGUUUACCUCCGCAACAGAGGAUUGAGCAUCA
B12: chr2:144966258:144966259:-_ENSG00000121964_ENST00000344850|hu_hu|motif|central (ssRNA)
RNA: GGGAGUUCUACAGUCCGACGAUCUGUCCGGGCUCUCCAAUGCCAUUUCUUUGCAGGAAGGGUAUAAACGACACAGUCUCCGGACUCUUCUUGAAGAAGAUCCACCAGCUGUUUAUGGGAGCCUCCAUAGAAUGCUUCAAUGAUCAACAGAGGAUUGAGCAUCA
B13: 43693971_43694091_1071_3pUTR_ENSMUSG00000078716_ENSMUST00000107866|mouse|control|control (ssRNA)
RNA: GGGAGUUCUACAGUCCGACGAUCAAGGCCAACUCCAGCUGGCAUACUGAGGCACCUCCACAGGCCACAGAGCUUGAGUUGUGUAGGGGUGGAGCCUUGGGACGUAGGCGCAGUGUCAGGGGACAGACAGAUGCCCCUCGACCCCAACAGAGGAUUGAGCAUCA
B14: chr13:56191178:56191179:-_ENSMUSG00000015937_ENSMUST00000016081|mus_hu|motif|central (ssRNA)
RNA: GGGAGUUCUACAGUCCGACGAUCUUUAAGGUCAAUGUCAGCAUUGGUAGGAUUGAUUAUGGCCUCCACCUCAAAGCCGGCGGAAUUACUGAUUUCACUGUGAAUAAGGUUCAGCUUCUGGCCAAGGAAGAGGCUCUUGGUGGACAACAGAGGAUUGAGCAUCA
B15: chr18:25268621:25268622:+_ENSMUSG00000034295_ENSMUST00000037097|mus_hu|FALSE|FALSE (ssRNA)
RNA: GGGAGUUCUACAGUCCGACGAUCGCUGAUGGAGGACAGGGUGAGGAGGAACUGCUCUGCACUGCCCAGGGGGAUUUCAGGGUUGGCCAGCUGAGCUUCCUGGAUUUUCUGCUUCUCCUCAUCGGUGGGAAUCAUCGUUAGAAUCAACAGAGGAUUGAGCAUCA
B16: chr3:9412954:9412955:+_ENSG00000134077_ENST00000452837|hu_mus|hu_hu_hu_mus_False|18_38 (ssRNA)
RNA: GGGAGUUCUACAGUCCGACGAUCGGUUGAUAUCUCUUCUUUGAUGGCUGGAUUUUCAUAAUAGUCCAAGAUAUGUGAAUCUGAAGUGCUGCUGGCAAACUCUUUUUUACCAUCUUUCUGAUCGAUUUUGUCUCCUUGUCCACACAACAGAGGAUUGAGCAUCA
B17: chr18:77180173:77180174:+_ENSMUSG00000090000_ENSMUST00000026487|mus_mus|motif|central (ssRNA)
RNA: GGGAGUUCUACAGUCCGACGAUCGAUAUAAACUGAACAACAGUAUUAUGAGAUGAGCCAAGAACACCACAAAGCUGGUCGGAGACAUAAGACAGACGAACAAACGAAAGCUACUUAGAAUCAACAACCUACCUACAGACAGAACAACAGAGGAUUGAGCAUCA
B18: chr9:57762402:57762403:+_ENSMUSG00000055720_ENSMUST00000163329|mus_mus|FALSE|FALSE (ssRNA)
RNA: GGGAGUUCUACAGUCCGACGAUCCCAAGAUUUUCGGAGAACAUGGACUGUGGAUCCAGGCUGAAUACCAUAGAAGUCAAGGGUCUGGUCAUCUUUUAGCUUCCGGCCACAGUAGAUCAAAUCGAUCAGCUCCGGGUCUGGAACCAACAGAGGAUUGAGCAUCA
B19: chr11:87793130:87793131:-_ENSMUSG00000020483_ENSMUST00000020775|mus_mus|FALSE|FALSE (ssRNA)
RNA: GGGAGUUCUACAGUCCGACGAUCAGAGCAUAGAUGUGGCAGGGUCUCAGUCACUGCACCAGAAAUGAGAGAUGAACAAAAACGAGACACUUCCAACUGGCCAGAGUCUGGGAGGGCAGGGAAACACAGAUCUGGACAUUCAUACAACAGAGGAUUGAGCAUCA
B20: chr2:202488911:202488912:-_ENSG00000155755_ENST00000286196|hu_mus|hu_hu_hu_mus_False|38_88 (ssRNA)
RNA: GGGAGUUCUACAGUCCGACGAUCAUUGAAACAUUUUUCAUAAUCUCAGAGAUGUUUUCAGCAUUAUGUAACAAAAGCUCAAUUGUAAAUACAUGUAUAUACAUCUUAUACACUUAAAAACACGAGUGGGGAGCGCAGGCGCCACAACAGAGGAUUGAGCAUCA
B21: chr10:7461220:7461221:+_ENSMUSG00000019794_ENSMUST00000165806|mus_mus|FALSE|FALSE (ssRNA)
RNA: GGGAGUUCUACAGUCCGACGAUCGACUUCUCCUUCAGCAGCUGGAAAUUCAUGUUGUGCAGCUUGCAAAGAAGUGAUGUCUAGUUUGAAGCUCUCGAGUGUUUUCAUGAUAUCCUUAACUUGCUUAGCUUCCACAUUUAUUUCCAACAGAGGAUUGAGCAUCA
B22: chr8:90938390:90938391:+_ENSG00000164823_ENST00000451899|hu_mus|FALSE|FALSE (ssRNA)
RNA: GGGAGUUCUACAGUCCGACGAUCAUCAAGUACCUAUCUGUCAAAAUCUCAACUUGUAAAAAUAUUUUUAAUGACCAUCAUAUUUGAUAAUAAAUUAGGUUUAUAUAACUGAUAGUUUCAAAAUAAAUAAAACCUGAGUUGCAACAACAGAGGAUUGAGCAUCA

In the test the target is T1, UNK ZnF1-3. As to the kind of experiment: nsRBNS (natural sequence RNA bind-n-seq); RBNS binding buffer (assumed for nsRBNS): 25 mM Tris pH 7.5, 150 mM KCl, 3 mM MgCl2, 0.01% Triton X-100, 500 ug/ml BSA, 20 U/ml SUPERase-In, 4 C; UNK is unkempt and MSI1 is Musashi-1; names of the RNAs are library labels; protein concentration not given here; high values mean tight binding.
On to B1, for which the binding signal is 0.681 enrichment R. The result for B2 reads 0.78 enrichment R.

With B3, the binding signal turned out to be 1.72 enrichment R.

Turning to B4, the binding signal was determined as 0.845 enrichment R.

B5 yielded a binding signal of 0.918 enrichment R. Regarding B6, the binding signal worked out at 0.66 enrichment R.

Molecule B7 had a binding signal of 0.402 enrichment R. As for B8, the figure is 0.867 enrichment R; as for B9, 0.529 enrichment R; as for B10, 0.959 enrichment R. The molecule B11 gave a binding signal of 0.728 enrichment R. As for B12, the figure is 0.77 enrichment R; as for B13, 1.58 enrichment R. As for B14, the figure is 1.03 enrichment R; as for B15, 0.876 enrichment R.

For B16, the binding signal was 0.506 enrichment R.

With B17, the binding signal amounted to 2.02 enrichment R. As for B18, the figure is 0.867 enrichment R; as for B19, 1.91 enrichment R. The result for B20 reads 0.712 enrichment R. Turning to B21, the binding signal worked out at 0.645 enrichment R. As for B22, the figure is 0.855 enrichment R.
